# Assay results reported in PubChem BioAssay AID686978 (National Center for Advancing Translational Sciences (NCATS), 2013).
# Several values for one entry are separate records, joined by “and”; a condition that tells them apart may be missing. Identical values can stand only once. Screen size: about 420,000 compounds; about 64,000 (15%) were called active. Inconclusive results, whose numbers are uncertain, are shown with a selection of clear calls. The call rests on the fitted dose curve; in most records, active means well fitted inhibition curve with a large enough effect; inconclusive means small, poorly fitted or top-dose-only effect; inactive means flat fitted curve, though single readings scatter. Potencies beside an inconclusive call are fits to weak or partial responses and may not hold up.
# Experiment: qHTS for Inhibitors of human tyrosyl-DNA phosphodiesterase 1 (TDP1): qHTS in cells in absence of CPT; further: nearly all actives have a fitted effect of over 55% in size
# Settings: DT40 Tdp1-/- hTDP1 cells, no CPT, ATP luminescence, 48 h; activity change, negative = growth inhibition: at 46.2 µM (top of the series) unless noted
# Outline: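 Growth kinetics read by CellTiter-Glo luminescence after ≥48 hr at 37 °C. Cells: DT40 Tdp1-/- stably carrying human TDP1, 400 per well, compound exposure in the absence of CPT (DMSO vehicle).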
# On the % scale 0 is the no-effect control and ±100 the full control effect; potency means the concentration at half of the fitted maximal effect; tags describe the fitted curve by direction and shape.
SMILES,Potency,"activity change, negative = growth inhibition"
COc1cc(/C=N/N2CCN(c3ccc(Cl)cc3)CC2)cc(OC)c1OC(C)=O,"inconclusive: 16.4 µM [inhibitor, partial curve]",
Cc1ccc(Cl)cc1N1CCN(C(=O)C2CCN(S(=O)(=O)c3cnc[nH]3)CC2)CC1,"inconclusive: 23.1 µM [inhibitor, single point]",
Cc1cc(N2CCN(C(=O)c3ccoc3)CC2)n2nc(-c3ccccc3)cc2n1,active: 18.4 µM,
CCn1cc(C(=O)N2CCCC(N3CCN(c4cccc(C(F)(F)F)c4)CC3)C2)cn1 (configuration not stated),"inconclusive: 18.4 µM [inhibitor, partial curve]",
OC(COc1c(Br)cc(Br)cc1Br)CN1CCOCC1 (configuration not stated),"inconclusive: 29.1 µM [inhibitor, single point]",
Cc1ccc(NC(=O)C2CCN(S(=O)(=O)c3cccc4nsnc34)CC2)cc1,,inconclusive: -32.5% [inhibitor]
Cc1ccc(NC(=O)CN2C(=O)C(c3ccc(F)cc3)=NC23CCCCCC3)c(C)c1,"inconclusive: 18.4 µM [inhibitor, single point]",
CCC(C)NCCOCCOc1ccccc1-c1ccccc1 (configuration not stated),"inconclusive: 18.4 µM [inhibitor, single point]",
CC(C)C[C@@H]1NC(=O)[C@H](CO)NC(=O)c2cc([N+](=O)[O-])cc(I)c2OCC[C@@H](C(N)=O)NC1=O,inactive,
CCCCCn1c(N)c(-c2nc3ccccc3o2)c2c([N+](=O)[O-])nn(CC)c(=O)c21,"inconclusive: 29.1 µM [inhibitor, single point]",
C/C(=N\NC(=O)CCCNc1ccc(C)cc1)c1ccccn1,active: 5.17 µM,
COC(=O)C1=C(C)N(CCc2ccccc2)C(=O)C1(NS(=O)(=O)c1ccc(NC(C)=O)cc1)C(F)(F)F (configuration not stated),"inconclusive: 32.6 µM [inhibitor, partial curve, poor fit]",
O=S1(=O)CC(N2CC=CC2)CN1Cc1ccc(F)cc1 (configuration not stated),inactive,
CCN(Cc1ccccc1)C(c1ccccn1)c1nnnn1C1CCCCC1 (configuration not stated),"inconclusive: 29.1 µM [inhibitor, single point]",
O=C(CCl)N1CCN(S(=O)(=O)c2ccc3c(c2)OCCCO3)CC1,active: 3.66 µM,
Cn1c2ccccc2c(=O)c2ccc(NCCc3cccs3)cc21,"inconclusive: 20.6 µM [inhibitor, single point]",
COc1ccc(-c2c([C@H]3[C@H]4C=CC[C@@H](C)[C@@H]4C(=O)N3Cc3ccccc3)ccc3ccccc23)cc1,active: 10.3 µM,
CCN(CCn1cccn1)Cc1cn[nH]c1-c1ccc(OC)cc1F,"inconclusive: 29.1 µM [inhibitor, single point]",
OCC1CSC(=S)N1Cc1ccccc1 (configuration not stated),"inconclusive: 18.4 µM [inhibitor, single point]",
O=c1c2ccccc2[nH]c(=S)n1CC1CCCO1 (configuration not stated),inactive,
CC(=O)NC(CC(=O)Nc1ccc(S(=O)(=O)N2CCCCC2)cc1)c1ccccc1 (configuration not stated),inactive,
Cc1cccc(CN2CCC(n3nccc3NC(=O)CCCc3ccccc3)CC2)c1,active: 20.6 µM,
CCc1cccc(NC(=O)Cn2c(=O)n(CCCCCC(=O)NCc3ccc(F)cc3)c(=O)c3sccc32)c1,"inconclusive: 23.1 µM [inhibitor, partial curve]",

SMILES,Potency,"activity change, negative = growth inhibition"
Cc1ccccc1-c1cccc(CN2CCc3nnc(C(NS(C)(=O)=O)C(C)C)n3CC2)c1 (configuration not stated),"inconclusive: 29.1 µM [inhibitor, single point]",
O=C(Cn1c(=O)sc2ccccc21)NCc1ccccn1,inactive,
Cc1ccc([C@@H]2C[C@H]3[C@@H](CN2S(=O)(=O)c2ccc(C)cc2)C(=O)C[C@@H](c2ccccc2F)N3S(=O)(=O)c2ccc(C)cc2)cc1,"inconclusive: 10.3 µM [inhibitor, partial curve]",
CCOC(=O)c1ccccc1NC(=O)CN(c1ccccc1)S(=O)(=O)c1ccc(OCC)cc1,active: 14.6 µM,
Cn1c(N2CCN(C(=O)NCc3ccccc3)CC2)nc2ccccc21,inactive,
Cc1cccc(NC(=O)Nc2cccs2)c1C,"inconclusive: 11.6 µM [inhibitor, partial curve]",
CCn1c(C)cc(/C=C2\SC(=O)N(CC(=O)Nc3ccc(C)c(C)c3)C2=O)c1C,"inconclusive: 11.6 µM [inhibitor, partial curve, poor fit]",
Cc1cc(N2CCCC2)ccc1NC(=O)COc1ccccc1,"inconclusive: 25.9 µM [inhibitor, single point]",
COc1ccc(-c2ccc(N)cn2)cn1,inactive,
Oc1ccc(N2CCN(C(=S)NCCc3ccccc3)CC2)cc1,active: 8.2 µM,
Cc1ccn2cc(-c3cnoc3C)nc2c1,"inconclusive: 29.1 µM [inhibitor, single point]",
CC[N+](C)(C)CCN(Cc1ccc(Cl)cc1)c1ccccn1,active: 9.2 µM,
COc1cc(/C=N/N2C(=O)c3ccccc3NC2(C)c2cccc([N+](=O)[O-])c2)cc(Br)c1O (configuration not stated),"inconclusive: 20.6 µM [inhibitor, single point]",
CCc1noc(C)c1C(=O)N1CCN(S(=O)(=O)c2cccc(C(F)(F)F)c2)CC1,inactive,
CCn1c(=O)c(C(=O)CN2c3ccccc3CC2C)c(N)n(Cc2ccccc2)c1=O (configuration not stated),"inconclusive: 18.4 µM [inhibitor, single point]",
COc1ccc(C2C=C(c3ccccc3)Nc3nc(NC(C)=O)nn32)cc1 (configuration not stated),"inconclusive: 20.6 µM [inhibitor, single point]",
COc1ccccc1NS(=O)(=O)c1ccc(-c2cnc(C3CC3)o2)cc1,active: 0.92 µM,
CSc1ncccc1C(=O)OCc1ccc([N+](=O)[O-])cc1,"inconclusive: 1.03 µM [inhibitor, full curve]",
Cc1ccc(C)c(NC(=O)Cn2ncc3c(C)n(Cc4ccc(F)cc4)c(C)c3c2=O)c1,"inconclusive: 16.4 µM [inhibitor, single point]",
CCCCN1Cc2cc(C(=O)c3cc(F)ccc3O)cnc2NC1=O,"inconclusive: 20.6 µM [inhibitor, partial curve]",
Cc1cccc(S(=O)(=O)Nc2cccc3c2C(=O)c2ccccc2-3)c1,"inconclusive: 25.9 µM [inhibitor, partial curve]",
CCN(CC)S(=O)(=O)c1ccc(-c2nnc3sc4cccc(C)c4n23)cc1,"inconclusive: 20.6 µM [inhibitor, single point]",
CCn1c(=NC(=O)CSC(C)=O)sc2ccccc21,"inconclusive: 20.6 µM [inhibitor, single point]",

SMILES,Potency,"activity change, negative = growth inhibition"
CC1(C)C2CCC(C2)C1(C)NC(=O)CN1CCN(Cc2ccccc2)CC1 (configuration not stated),"inconclusive: 29.1 µM [inhibitor, single point]",
CCS(=O)c1ccccc1C(=O)OCC(=O)N1CCC(c2ccccc2)=N1 (configuration not stated),"inconclusive: 18.4 µM [inhibitor, single point]",
CC(C)C(OC(=O)CN1C(=O)c2ccccc2C1=O)C(=O)NC1CCCCC1 (configuration not stated),inactive,
CCCCCCc1c(C)c2c(cc(C)c3c(C)coc32)oc1=O,"inconclusive: 29.1 µM [inhibitor, single point]",
CS(=O)(=O)N1N=C(c2ccc(Br)cc2)CC1c1ccc2c(c1)OCO2 (configuration not stated),"inconclusive: 23.1 µM [inhibitor, single point]",
Cc1cc(C)cc(NC(=O)Cn2nnc(-c3ccccc3F)n2)c1,"inconclusive: 29.1 µM [inhibitor, single point]",
O=C(NC(O)C(=O)c1ccc(F)cc1)c1ccc(F)cc1 (configuration not stated),"inconclusive: 29.1 µM [inhibitor, single point]",
CC(CN1CCC(n2nccc2NC(=O)CCCc2ccccc2)CC1)c1ccccc1 (configuration not stated),"inconclusive: 29.1 µM [inhibitor, single point]",
c1ccc(NC2=NCCN2CC2CCCCC2)cc1,inactive,
O=C(Nc1cccnc1)Nc1cccc([N+](=O)[O-])c1,"inconclusive: 23.1 µM [inhibitor, partial curve]",
COc1ccc(CCC(C)NCC(C)c2ccccc2)cc1 (configuration not stated),inactive,
COC(=O)c1ccc(CSc2nc3c(c(=O)n2-c2ccc(C)cc2)SCC3)o1,"inconclusive: 25.9 µM [inhibitor, single point]",
Cc1c(O)c(C)c2c(c1O)C(=O)C[C@@H](c1ccccc1)O2,"inconclusive: 29.1 µM [inhibitor, single point]",
Nc1ccc(C=Cc2ccc(N)cc2)cc1,active: 18.4 µM,
CC1=C(c2ccc(C)c(C)c2)S(=O)(=O)N(Cc2ccc(C(=O)NCc3ccccc3F)cc2)C1=O,"inconclusive: 16.4 µM [inhibitor, single point]",
COc1ccc(C(=O)Nc2ccc(O)c3ccccc23)cc1OC,"inconclusive: 29.1 µM [inhibitor, single point]",
COc1ccc2oc(C(=O)N3CCN(c4ncccn4)CC3)c(C)c2c1,inactive,
O=C1CCN(CCc2ccccc2)CCN1CCSc1ccccc1,"inconclusive: 17.8 µM [inhibitor, single point] and inconclusive: 18.4 µM [inhibitor, single point]",
O=C(COc1ccccc1Cl)NCCCNC(=O)c1cccnc1,"inconclusive: 29.1 µM [inhibitor, single point]",
CC(C)n1c(=O)c2ccccc2n1Cc1cn(-c2ccccc2)nn1,"inconclusive: 25.9 µM [inhibitor, single point]",
Cn1c(-c2c(N)n(CCCc3ccccc3)c3nc4ccccc4nc23)nc2ccccc21,"inconclusive: 23.1 µM [inhibitor, single point]",
